Results on 32 sequences are retold here after paper PMC12820563.

The other results are listed elsewhere or left out. The list includes weakly bound sequences.

The assay deals with T1, MBP-FoxP3dN (UniProt Q99JB6).
T1 sequence: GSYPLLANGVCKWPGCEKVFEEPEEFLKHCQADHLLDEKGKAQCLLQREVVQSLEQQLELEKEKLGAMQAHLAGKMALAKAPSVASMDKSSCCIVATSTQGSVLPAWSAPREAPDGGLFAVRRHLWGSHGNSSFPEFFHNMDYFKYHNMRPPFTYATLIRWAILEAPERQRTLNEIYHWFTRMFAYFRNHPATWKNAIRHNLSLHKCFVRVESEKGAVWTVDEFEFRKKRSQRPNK
Nature of the assay: PD-seq (MBP pull-down with sequencing). The settings on record: 20 mM Tris-HCl pH 7.5, 100 mM NaCl, 1.5 mM MgCl2, 0.4 uM protein, 0.1 uM dsDNA library, 30 min, room temperature, amylose pull-down; high values mean tight binding; double strand, one strand shown.
As for “GATGATTGTTCTCCCAGCTGATGAATTCCTCTAATCGAGTAAACAAATTTTCCTAATCTTTCTGTTCAAGCGCCATCTAC”, the binding signal (RPM ratio (pull-down/input)) is 0.265.
Take “GATGATTGTTCTCCCAGCTGATGAATTTTAGTGCTCGAGTAAACAAATTTTCCTAATCTTTCTGTTCAAGCGCCATCTAC”: the binding signal (RPM ratio (pull-down/input)) came to 0.557.
Take “GATGATTGTTCTCCCAGCTGATGAATTCATCTTATCGAGTAAACAAATTTTCCTAATCTTTCTGTTCAAGCGCCATCTAC”: the binding signal (RPM ratio (pull-down/input)) amounted to 0.408.
For “GATGATTGTTCTCCCAGCTGATGAATTCGTCCACTCGAGTAAACAAATTTTCCTAATCTTTCTGTTCAAGCGCCATCTAC”, the binding signal (RPM ratio (pull-down/input)) worked out at 0.485.
As to “GATGATTGTTCTCCCAGCTGATGAATTTATCTGCTCGAGTAAACAAATTTTCCTAATCTTTCTGTTCAAGCGCCATCTAC”, the binding signal (RPM ratio (pull-down/input)) came out at 0.769.
For “GATGATTGTTCTCCCAGCTGATGAATTAGCCTGTTCGAGTAAACAAATTTTCCTAATCTTTCTGTTCAAGCGCCATCTAC” the value was 0.655; for “GATGATTGTTCTCCCAGCTGATGAATTATGGCCATCGAGTAAACAAATTTTCCTAATCTTTCTGTTCAAGCGCCATCTAC”, 1.61; for “GATGATTGTTCTCCCAGCTGATGAATTCCGTTCTTCGAGTAAACAAATTTTCCTAATCTTTCTGTTCAAGCGCCATCTAC”, 0.554.
The value for “GATGATTGTTCTCCCAGCTGATGAATTTTTTAGATCGAGTAAACAAATTTTCCTAATCTTTCTGTTCAAGCGCCATCTAC” was 0.177.
For the sequence “GATGATTGTTCTCCCAGCTGATGAATTTTAGGCCTCGAGTAAACAAATTTTCCTAATCTTTCTGTTCAAGCGCCATCTAC”, the binding signal (RPM ratio (pull-down/input)) worked out at 0.444.
For “GATGATTGTTCTCCCAGCTGATGAATTAAGAGGATCGAGTAAACAAATTTTCCTAATCTTTCTGTTCAAGCGCCATCTAC” the value was 0.247.
For “GATGATTGTTCTCCCAGCTGATGAATTGGCCGCATCGAGTAAACAAATTTTCCTAATCTTTCTGTTCAAGCGCCATCTAC”, the binding signal (RPM ratio (pull-down/input)) came to 0.96.
The value for “GATGATTGTTCTCCCAGCTGATGAATTCTAAGGCTCGAGTAAACAAATTTTCCTAATCTTTCTGTTCAAGCGCCATCTAC” was 0.248; that for “GATGATTGTTCTCCCAGCTGATGAATTGATTCGTTCGAGTAAACAAATTTTCCTAATCTTTCTGTTCAAGCGCCATCTAC” was 0.437.
For “GATGATTGTTCTCCCAGCTGATGAATTAGGAACCTCGAGTAAACAAATTTTCCTAATCTTTCTGTTCAAGCGCCATCTAC”, the binding signal (RPM ratio (pull-down/input)) turned out to be 0.28.
Regarding “GATGATTGTTCTCCCAGCTGATGAATTGCCCCCTTCGAGTAAACAAATTTTCCTAATCTTTCTGTTCAAGCGCCATCTAC”, the binding signal (RPM ratio (pull-down/input)) is 0.413.
For “GATGATTGTTCTCCCAGCTGATGAATTCCTGCGCTCGAGTAAACAAATTTTCCTAATCTTTCTGTTCAAGCGCCATCTAC” the value was 0.4; for “GATGATTGTTCTCCCAGCTGATGAATTGGTCGCTTCGAGTAAACAAATTTTCCTAATCTTTCTGTTCAAGCGCCATCTAC”, 0.51; for “GATGATTGTTCTCCCAGCTGATGAATTGTCGTTATCGAGTAAACAAATTTTCCTAATCTTTCTGTTCAAGCGCCATCTAC”, 1.18.
Take “GATGATTGTTCTCCCAGCTGATGAATTCTGACCCTCGAGTAAACAAATTTTCCTAATCTTTCTGTTCAAGCGCCATCTAC”: the binding signal (RPM ratio (pull-down/input)) is 0.389.
The value for “GATGATTGTTCTCCCAGCTGATGAATTCTATTAATCGAGTAAACAAATTTTCCTAATCTTTCTGTTCAAGCGCCATCTAC” was 0.561; that for “GATGATTGTTCTCCCAGCTGATGAATTGTGGCAATCGAGTAAACAAATTTTCCTAATCTTTCTGTTCAAGCGCCATCTAC” was 3.16.
In the case of “GATGATTGTTCTCCCAGCTGATGAATTGCATCATTCGAGTAAACAAATTTTCCTAATCTTTCTGTTCAAGCGCCATCTAC”, the binding signal (RPM ratio (pull-down/input)) is 5.15.
For “GATGATTGTTCTCCCAGCTGATGAATTAGTTATATCGAGTAAACAAATTTTCCTAATCTTTCTGTTCAAGCGCCATCTAC”, the binding signal (RPM ratio (pull-down/input)) is 1.36.
Regarding “GATGATTGTTCTCCCAGCTGATGAATTCGGGATCTCGAGTAAACAAATTTTCCTAATCTTTCTGTTCAAGCGCCATCTAC”, the binding signal (RPM ratio (pull-down/input)) worked out at 0.284.
For the sequence “GATGATTGTTCTCCCAGCTGATGAATTCCCTTGGTCGAGTAAACAAATTTTCCTAATCTTTCTGTTCAAGCGCCATCTAC”, the binding signal (RPM ratio (pull-down/input)) was 0.225.
The value for “GATGATTGTTCTCCCAGCTGATGAATTGATTCAATCGAGTAAACAAATTTTCCTAATCTTTCTGTTCAAGCGCCATCTAC” was 0.312; that for “GATGATTGTTCTCCCAGCTGATGAATTTCTCCATTCGAGTAAACAAATTTTCCTAATCTTTCTGTTCAAGCGCCATCTAC” was 0.288.
On to “GATGATTGTTCTCCCAGCTGATGAATTAAGGATTTCGAGTAAACAAATTTTCCTAATCTTTCTGTTCAAGCGCCATCTAC”, for which the binding signal (RPM ratio (pull-down/input)) worked out at 0.252.
As to “GATGATTGTTCTCCCAGCTGATGAATTAGCCCGCTCGAGTAAACAAATTTTCCTAATCTTTCTGTTCAAGCGCCATCTAC”, the binding signal (RPM ratio (pull-down/input)) was determined as 0.269.
“GATGATTGTTCTCCCAGCTGATGAATTCGGAAACTCGAGTAAACAAATTTTCCTAATCTTTCTGTTCAAGCGCCATCTAC”: the binding signal (RPM ratio (pull-down/input)) came out at 0.585.
The value for “GATGATTGTTCTCCCAGCTGATGAATTTCATACATCGAGTAAACAAATTTTCCTAATCTTTCTGTTCAAGCGCCATCTAC” was 0.449.
